Source: PubChem BioAssay AID588591 (National Center for Advancing Translational Sciences (NCATS), 2011)
Where “and” joins values, the source holds several entries; their conditions need not be identical. Equal entries are not always repeated. Screen size: about 390,000 compounds; about 4,700 (1.2%) were called active. The inconclusive results got no clear call from the source; some entries with a clear call stand among them for comparison. Calls follow the shape of the dose curve; as a rule, active = well fitted inhibition curve with a large enough effect; inconclusive = small, poorly fitted or top-dose-only effect, or another doubt; inactive = no such curve, though single readings can be large or run the other way. Where the call is inconclusive, the potency comes from a doubtful curve fit.

biological target: DNA polymerase eta (Homo sapiens) (UniProt Q9Y253); experiment: qHTS for Inhibitors of Polymerase Eta; settings: recombinant Pol eta, fluorescent DNA replication assay; series mostly up to 114 µM
Summary of the method: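 Pol eta at 10 nM preincubated with compounds 15 min at room temperature; reaction started with fluorescent substrate (50 nM final) and read kinetically at 0 and 10 min.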
Potency is read from the fitted curve at half-maximal effect; tags tell the direction and shape of the fitted curve.

Chain of UniProt Q9Y253 (Q9Y253 whole entry, looked up): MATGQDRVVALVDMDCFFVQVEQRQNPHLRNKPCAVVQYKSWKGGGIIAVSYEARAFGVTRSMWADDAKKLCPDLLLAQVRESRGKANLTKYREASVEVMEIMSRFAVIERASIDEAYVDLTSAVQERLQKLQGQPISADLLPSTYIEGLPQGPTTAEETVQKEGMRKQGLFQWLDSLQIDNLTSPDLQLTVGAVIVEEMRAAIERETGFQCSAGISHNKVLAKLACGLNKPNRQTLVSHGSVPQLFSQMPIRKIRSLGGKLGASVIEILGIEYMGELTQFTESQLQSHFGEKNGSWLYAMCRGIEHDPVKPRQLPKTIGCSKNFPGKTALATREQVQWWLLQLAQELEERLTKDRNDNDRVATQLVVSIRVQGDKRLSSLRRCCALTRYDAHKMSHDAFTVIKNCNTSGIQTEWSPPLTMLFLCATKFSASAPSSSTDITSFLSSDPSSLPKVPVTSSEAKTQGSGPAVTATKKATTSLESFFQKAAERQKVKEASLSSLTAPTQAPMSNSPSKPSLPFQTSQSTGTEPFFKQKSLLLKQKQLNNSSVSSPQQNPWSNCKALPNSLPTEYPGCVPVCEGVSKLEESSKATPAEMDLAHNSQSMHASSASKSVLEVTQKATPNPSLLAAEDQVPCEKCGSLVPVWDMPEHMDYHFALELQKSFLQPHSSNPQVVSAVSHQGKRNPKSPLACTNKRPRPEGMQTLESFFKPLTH

Row | SMILES | Potency
1 | O=[n+]1c2c(n([O-])c3cc(F)c(F)cc31)CCCC2 | inconclusive: 28.2 µM [inhibitor, partial curve, poor fit]
2 | Cn1cc(CNC(=O)c2cc(COc3ccc4c(c3)CCCC4)on2)cn1 | inconclusive: 79.4 µM [inhibitor, partial curve, poor fit]
3 | COc1cc(/C=c2\s/c(=C(/C#N)C(=O)N3CCCC3)n(-c3ccccc3)c2=O)ccc1O | inconclusive: 3.16 µM [inhibitor, partial curve, poor fit]
4 | CCCNC(=O)COc1coc(CN2CCN(c3ccc(F)cc3)CC2)cc1=O | inactive
5 | O=C(O)COc1ccc2c3c(c(=O)oc2c1)CCC3 | inconclusive: 15.8 µM [inhibitor, full curve, poor fit]
6 | O=C(NNC(=O)c1ccc(-c2ccccc2)cc1)c1ccccc1 | inconclusive: 31.6 µM [inhibitor, partial curve, poor fit]
7 | O=C(CCl)N(c1ccc(Cl)cc1)c1c[nH]c2ccccc12 | inconclusive: 15.8 µM [inhibitor, full curve]
8 | CCOC(=O)c1c(C)[nH]c(C)c1C(=O)COC(=O)COc1ccc(Cl)c(C)c1 | inconclusive: 44.7 µM [inhibitor, partial curve, poor fit]
9 | Cc1[nH]c(C)c(S(=O)(=O)NCc2ccc(Cl)cc2)c1C(=O)N1CCCC1 | inactive
10 | CCCSCCCNC(=O)C1CCN(C(=O)c2cnn(-c3ccccc3)c2-n2cccc2)CC1 | inactive
11 | COc1ccc(C(=O)Nc2ccc3c(c2)C(=O)c2ccccc2C3=O)cc1OC | inconclusive: 5.01 µM [inhibitor, partial curve, poor fit]
12 | C=CC[C@H](CC(=O)N(CCO)Cc1ccccc1)C(=O)N[C@H](COC(=O)[C@@H](CC=C)Cc1ccc(F)cc1)Cc1ccccc1 | inconclusive: 79.4 µM [inhibitor, partial curve, poor fit]
13 | COc1ccc(C2CC(=O)c3c([nH]c(C(=O)OCc4ccccc4)c3C)C2)cc1 (configuration not stated) | inconclusive: 100 µM [inhibitor, single point]
14 | C=C(C)C(=O)Nc1cccc(C2=NOC3(C2)C[C@H](C(N)=O)N(C(=O)c2ccccc2C(=O)c2ccccc2)C3)c1 (some centres not stated) | active: 5.62 µM
15 | COC(=O)c1ccccc1-c1c2ccc(=N)cc-2oc2cc(N)ccc12 | active: 50.1 µM
16 | O=C(CCN1CCCCCC1)c1ccccc1 | inactive
17 | COc1ccc(N2C(=O)c3ccccc3S2(=O)=O)cc1 | inconclusive: 89.1 µM [inhibitor, partial curve, poor fit]
18 | C=CC1=C(C(=O)O)N2C(=O)[C@@H](NC(=O)/C(=N\O)c3csc(N)n3)[C@H]2SC1 (stereo in doubt) | inconclusive: 89.1 µM [inhibitor, single point]
19 | CCOC(=O)c1c(-c2ccccc2)csc1NC(=O)/C(C#N)=C\c1ccc(O)c(OC)c1 | inconclusive: 25.1 µM [inhibitor, full curve]
20 | CCNc1nnc(SCC(=O)NC2CCCCCC2)s1 | inconclusive: 3.98 µM [inhibitor, partial curve, poor fit]
21 | Oc1ccc(/C=N/NC(=S)NC2CC3CCC2C3)cc1 (configuration not stated) | inconclusive: 44.7 µM [inhibitor, partial curve, poor fit]

Row | SMILES | Potency
22 | S=C(Nc1ccc2nccnc2c1)N1CCOCC1 | inactive
23 | Cc1ccc2nc(NC(=O)COC(=O)CSc3nc(C)cc(C)n3)sc2c1 | inactive
24 | Cc1oc(-c2ccccc2Cl)nc1CSCC(=O)N1CCCC1 | inactive
25 | CCc1cccc(C)c1Nc1c(-c2ccc(SC)cc2)nc2sccn12 | inactive
26 | Cc1cccc2sc(NC(=O)C3CCN(S(=O)(=O)c4cc([N+](=O)[O-])ccc4Cl)CC3)nc12 | active: 11.2 µM
27 | Cn1c(NC(=O)c2ccc(F)cc2)c(-c2ccccn2)c(=O)c2ccccc21 | inactive
28 | O=C(O)CCCN1C(=O)/C(=C/c2cn(-c3ccccc3)nc2-c2cccs2)SC1=S | active: 28.2 µM
29 | COc1ccc(OC)c(NC(=O)COC(=O)CN(C)S(=O)(=O)c2ccc(C)cc2)c1 | inactive
30 | COc1cc(C(=S)N2CCOCC2)ccc1OS(=O)(=O)c1ccc(C)cc1 | inconclusive: 0.447 µM [inhibitor, partial curve, poor fit]
31 | CCn1cnc2sc(C(=O)Nc3ccc4c(c3)OCO4)c(C)c2c1=O | inconclusive: 28.2 µM [inhibitor, partial curve, poor fit]
32 | COc1ccc(C#Cc2cnc3c(c2)C(=O)N([C@H](C)CO)C[C@H](C)[C@@H](CN(C)C(=O)Nc2cccc(OC)c2)O3)cc1 | inconclusive: 3.98 µM [inhibitor, partial curve, poor fit]
33 | COC(=O)COc1ccc2oc(=O)cc(-c3cc4cccc(OC)c4o3)c2c1 | inconclusive: 35.5 µM [inhibitor, partial curve, poor fit]
34 | COc1ccc(CCNC(=O)Cn2nnc(-c3ccc(Cl)cc3)n2)cc1OC | inactive
35 | C#CCOCCOCCOCCNc1nc(N2CCN(C(=O)CCCCCCCCCCNC(=O)[C@H]([C@@H](C)CC)n3cc(CCCCN=C(N)N)nn3)CC2)nc(N2CCN(C(=O)CCCCCCCCCCNC(=O)[C@@H]([C@H](C)O)n3cc(C)nn3)CC2)n1 | inconclusive: 50.1 µM [inhibitor, partial curve, poor fit]
36 | CC(C)C(=O)Nc1cccc(COc2cccc(CN(Cc3ccccc3)C(=O)OC(C)(C)C)c2)c1 | inactive
37 | COc1cccc2cc(C(C)N(CCCN3CCOCC3)C(=O)Nc3ccc(Cl)cc3)oc12 (configuration not stated) | inconclusive: 25.1 µM [inhibitor, partial curve, poor fit]
38 | Cc1ccsc1/C=N/n1c(-c2ccccn2)n[nH]c1=S | inactive
39 | COc1ccc(/C=N/n2cnc3c([nH]c4ccc(Br)cc43)c2=O)cc1CN1CCOCC1 | inconclusive: 28.2 µM [inhibitor, partial curve, poor fit]
40 | Cc1[nH]n(-c2ccccc2)c(=O)c1C(c1cc(Cl)ccc1O)c1c(C)[nH]n(-c2ccccc2)c1=O | inconclusive: 89.1 µM [inhibitor, single point]
41 | CN1CCN(C(c2ccc(F)cc2)c2ccc3cccnc3c2O)CC1 (configuration not stated) | inactive
42 | NC(CO)(CO)COCc1ccccc1 | inactive

Row | SMILES | Potency
43 | O=C(NCc1cccnc1)c1cccc2c1C(=O)N(C1CCCCC1)C2 | inconclusive: 39.8 µM [inhibitor, partial curve, poor fit]
44 | CC(/C=N/n1cnnc1)=C\c1ccco1 | inconclusive: 20 µM [inhibitor, single point]
45 | O=[N+]([O-])c1ccc(O)c(C=Nc2ccc3nc(-c4ccccc4)[nH]c3c2)c1 | inconclusive: 14.1 µM [inhibitor, partial curve, poor fit]
46 | c1csc(Cc2nn3c(-c4ccncc4)nnc3s2)c1 | inconclusive: 100 µM [inhibitor, partial curve, poor fit]
47 | Cc1ccc(CN2C(=O)NC(Cc3c[nH]c4ccccc34)C2=O)cc1 (configuration not stated) | inconclusive: 3.98 µM [inhibitor, partial curve, poor fit]
48 | CCCCC[C@H](O)/C=C/[C@@H]1[C@@H](C/C=C\CCCC(=O)OC)[C@@H](O)C[C@H]1O | inconclusive: 89.1 µM [inhibitor, single point]
49 | O=C(N/N=C/c1ccsc1)c1cc(-c2ccncc2)nc2ccccc12 | inconclusive: 39.8 µM [inhibitor, partial curve, poor fit]
50 | Cc1ccc(NC(=O)CN2C(=O)N/C(=C\c3cccn3-c3cccc(C(=O)O)c3)C2=O)cc1 | active: 3.55 µM
51 | O=c1cc(CSc2ncn[nH]2)[nH]c2ccc(F)cc12 | inactive
52 | COc1ccc(C(=O)COC(=O)CN2C(=O)C3CC=CCC3C2=O)c(OC)c1 (configuration not stated) | inconclusive: 17.8 µM [inhibitor, full curve, poor fit]
53 | NS(=O)(=O)c1ccc(NC(=O)COC(=O)c2ccc([N+](=O)[O-])s2)cc1 | inconclusive: 56.2 µM [inhibitor, partial curve, poor fit]
54 | COC(=O)c1sccc1-c1ccc(C(=O)Nc2cccc(Cl)c2)o1 | inconclusive: 12.6 µM [inhibitor, partial curve, poor fit]
55 | CCCc1cc(=O)n2c(C(=O)Nc3ccc(OCC)cc3)c(C(=O)Nc3ccc(C)cc3)sc2n1 | inactive
56 | Cc1cccc(OCC(=O)Nc2cc(NC(=O)COc3cccc(C)c3C)cc(C(=O)O)c2)c1C | inconclusive: 22.4 µM [inhibitor, partial curve, poor fit]
57 | COc1ccccc1N1CCN(C(=O)Cn2ncc3ccsc3c2=O)CC1 | inactive
58 | CCOC(=O)C1=C(C)OC(=CC=Cc2ccccc2)C1=O | inconclusive: 56.2 µM [inhibitor, partial curve, poor fit]
59 | CCN(c1cccc(C(F)(F)F)c1)S(=O)(=O)c1ccc2c(c1)CCN2C(=O)C1CC1 | inconclusive: 22.4 µM [inhibitor, partial curve, poor fit]
60 | COc1ccc(C(CCN(Cc2ccc(OC)c(OC)c2)C(=O)CCl)c2ccccc2)cc1 (configuration not stated) | inconclusive: 12.6 µM [inhibitor, partial curve, poor fit]
61 | N#Cc1c(N)sc(=S)c2c1CCCCC2 | active: 12.6 µM
62 | Cc1nc2scc(C)n2c(=O)c1S(=O)(=O)Nc1ccc(N2CCN(S(C)(=O)=O)CC2)cc1 | inconclusive: 100 µM [inhibitor, single point] and inconclusive: 22.4 µM [inhibitor, full curve]
